Assay results published in PubChem BioAssay AID488969 (Vanderbilt High Throughput Screening Facility, 2010).
Whole data set: some 110,000 compounds, median “z-score” near -0.1, cut for the highest 2% near 2. The list shows a part of the results. The source made the active and inactive calls.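 Rule for the calls: active = z-score in the third read window above 3 or below -3; inactive = the rest.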

target: Metabotropic glutamate receptor 8 (Rattus norvegicus) (UniProt P70579); assay: mGluR8 Gi/Go-coupled signaling modulation – cell-based, rat, thallium flux, HTS, primary screen (AID 488969); details: HEK293 rat mGluR8, GIRK (G protein-gated inwardly rectifying potassium channel) thallium flux, FluoZin2; at 10 µM; stronger effect = higher value; submaximal glutamate (EC20) added with thallium
Chain of UniProt P70579 (P70579 whole entry, looked up): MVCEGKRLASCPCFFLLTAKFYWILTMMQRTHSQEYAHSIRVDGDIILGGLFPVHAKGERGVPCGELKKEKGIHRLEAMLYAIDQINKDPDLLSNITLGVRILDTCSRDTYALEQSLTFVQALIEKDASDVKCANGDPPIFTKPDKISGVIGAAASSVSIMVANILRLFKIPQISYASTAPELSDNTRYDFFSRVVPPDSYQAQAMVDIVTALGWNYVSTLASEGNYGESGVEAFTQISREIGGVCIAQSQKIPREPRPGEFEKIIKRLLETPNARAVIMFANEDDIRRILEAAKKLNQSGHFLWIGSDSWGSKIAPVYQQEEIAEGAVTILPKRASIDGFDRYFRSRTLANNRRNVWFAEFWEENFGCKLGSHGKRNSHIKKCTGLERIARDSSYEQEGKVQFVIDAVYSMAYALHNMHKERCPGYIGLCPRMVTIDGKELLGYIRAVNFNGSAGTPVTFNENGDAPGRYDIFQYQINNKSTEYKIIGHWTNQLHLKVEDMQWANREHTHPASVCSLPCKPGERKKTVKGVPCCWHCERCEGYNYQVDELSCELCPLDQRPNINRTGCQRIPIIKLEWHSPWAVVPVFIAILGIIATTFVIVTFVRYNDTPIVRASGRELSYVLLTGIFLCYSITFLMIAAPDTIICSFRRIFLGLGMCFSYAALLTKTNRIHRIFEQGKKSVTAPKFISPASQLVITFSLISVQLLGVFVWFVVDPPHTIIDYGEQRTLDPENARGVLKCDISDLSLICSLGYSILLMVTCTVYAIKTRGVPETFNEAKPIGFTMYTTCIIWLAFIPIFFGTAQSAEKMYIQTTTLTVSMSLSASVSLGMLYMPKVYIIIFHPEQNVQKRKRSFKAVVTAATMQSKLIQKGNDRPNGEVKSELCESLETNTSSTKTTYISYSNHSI

| Structure (SMILES) | z-score |
| --- | --- |
| CCCCC(=O)NC(c1ccccc1Cl)c1c(O)ccc2ccccc12 (stereo not given) | 0.086 |
| O=C(NC(=S)Nc1ccc2[nH]ncc2c1)c1ccccc1 | -0.139 |
| Cn1c(SCC(=O)N2CCCc3ccccc32)nnc1-c1ccccc1 | -0.547 |
| O=C(Nc1ccccn1)C12CC3CC(CC(C3)C1)C2 | -0.292 |
| N#Cc1cc([N+](=O)[O-])c(-n2nnc3ccccc32)c([N+](=O)[O-])c1 | -0.082 |
| COc1cc(NC(=O)c2c(F)c(F)c(F)c(F)c2F)c(OC)cc1Cl | -0.246 |
| CCOC(=O)N1CCN(C(=O)C2CCN(S(=O)(=O)c3ccc(Cl)cc3)CC2)CC1 | 0.0191 |
| CCOC(=O)CC12CN3CN(C1)CC(CC(=O)OCC)(C3)C2=O | -0.0089 |
| CC(OC(=O)c1cc(S(=O)(=O)Nc2ccc(F)cc2)ccc1Cl)C(=O)Nc1ccc2c(c1)OCCO2 (stereo not given) | -0.101 |
| O=C(NCc1ccc(OC(F)(F)F)cc1)C1CC(c2ccccc2[N+](=O)[O-])=NO1 (stereo not given) | -0.0635 |
| N#Cc1c(-c2cccc(F)c2)cc(-c2ccccc2)nc1Br | -0.125 |
| COc1ccc(C(=O)Cc2cnn(-c3ccccc3)c2)c(O)c1 | -0.0429 |
| COc1ccc(C2=C/C(=C\c3cccc(OC(C)=O)c3)C(=O)O2)cc1 | -1.6 |
| CCOC(=O)N1CCN(C(=O)c2ccccc2Oc2ccccc2)CC1 | -0.091 |
| CCC(=O)c1ccc(OC(=O)c2cccs2)cc1 | 0.0687 |
| Cc1cc(C(=O)OCC(=O)Nc2ccccc2F)c(C)o1 | -0.195 |
| O=C(NCc1ccco1)c1ccccc1NS(=O)(=O)c1ccc(Cl)s1 | -1.14 |
| CC(=O)Nc1ccc(S(=O)(=O)NNC(=O)COc2cccc(C)c2)cc1 | -0.303 |
| Cc1cc(F)c(F)c(C(=O)N2CCOCC2)c1Cl | 0.284 |
| CC(=O)Nc1ccc(S(=O)(=O)N2CCC(NC(=O)c3ccco3)CC2)cc1 | 0.0137 |
| CCN(CC)CCCn1c(C)cc2c(c1=O)C(c1cccc(Cl)c1)C(C#N)=C(N)O2 (stereo not given) | 2.38 |
| COCCCNC(=O)c1ccc(Cn2c(=O)c3ccccc3n(Cc3ccccc3C)c2=O)cc1 | -1.76 |
| CC(=O)NC(Cc1ccccc1)C(=O)NC1CCN(c2ncccc2[N+](=O)[O-])CC1 (stereo not given) | 1.6 |
| CCc1nnc(NC(=O)C(=O)NCCOC(=O)c2ccccc2)s1 | -0.014 |
| O=C(CSc1ccccc1C(=O)NCc1ccccc1)NC1CCCCCCC1 | -0.317 |
| Cc1cccc(-n2c(Cc3cc(=O)[nH]c(=O)[nH]3)nnc2SCC(=O)N2CCCCC2)c1 | -0.186 |
| CCOC(=O)CN1C(=O)Nc2ccc(Br)cc2C1c1ccccc1 (stereo not given) | -0.26 |
| Cc1cc(=O)[nH]c(SCc2nnc(-c3ccccc3)o2)n1 | -0.298 |

| Structure (SMILES) | z-score |
| --- | --- |
| COc1ccc(/C=C/C(=O)c2cc(F)ccc2OC(=O)c2ccccc2C)cc1OC | -0.109 |
| Cc1ccc(Nc2nnc(C3C(=O)N(C)C4(C)CC3c3cc(Br)ccc3O4)s2)cc1 (stereo not given) | 0.0607 |
| CCC(=O)N1CCN(c2ccccc2NC(=O)COc2cccc(C)c2)CC1 | active: 13 |
| Cc1ccc(Nc2cc(C)nc(N3CCOCC3)n2)cc1 | -0.644 |
| CCOC(=O)c1ccc(Cl)c(NC(=O)c2ccc(-c3ccccc3)cc2)c1 | 0.494 |
| CC(C)C(=O)Nc1ccc(C(=O)NCc2cccnc2)cc1 | 0.334 |
| CN1/C(=C\C=C(/C#N)C(=O)Nc2ccc(Cl)cc2)C(C)(C)c2ccccc21 | -2.23 |
| COC(=O)c1ccccc1NC(=O)CSc1nnnn1-c1ccc(C)cc1C | -0.571 |
| Cc1nc2nc(SCC(=O)NCCN3CCOCC3)nn2c(C)c1Cc1ccccc1 | 0.727 |
| O=C(Nc1ccc(Cl)cc1)c1cc(S(=O)(=O)N2CCOCC2)cs1 | -0.483 |
| O=C(OCn1ncc(Cl)c(Cl)c1=O)c1ccc(F)cc1 | -0.856 |
| CC(C)(C)n1nnnc1C(c1cccs1)N(Cc1cccnc1)CC1CCCO1 (stereo not given) | -0.58 |
| C=CCN1/C(=C(\C#N)C2=NS(=O)(=O)c3ccccc32)N(C)c2ccccc21 | -0.188 |
| CCOC(=O)c1ccc(-c2cccc(C(F)(F)F)c2)nc1C | 0.158 |
| OC(COCc1ccc2c(c1)OCO2)CN1CCN(Cc2ccccc2)CC1 (stereo not given) | -0.00855 |
| CC(C)C(=O)NC(=S)Nc1ccccc1C(F)(F)F | 0.0217 |
| Cc1ccc(S(=O)(=O)N(CC(=O)N=Nc2c(O)[nH]c3ccccc23)c2cccc(C)c2)cc1 | 1.16 |
| c1csc(CNCCCN2CCOCC2)c1 | 0.0584 |
| COC(=O)c1cccc(C(=O)Nc2cnc3ccccc3c2)n1 | 0.355 |
| Cc1ccc(S(=O)(=O)N2c3cc(C)ccc3OCC2C(C)(C)C)cc1 (stereo not given) | -0.132 |
| CCCCNC(=O)C(NS(=O)(=O)c1cccc2nsnc12)c1ccccc1 (stereo not given) | 0.117 |
| CCC(=O)Nc1ccc(-c2nn3c(C)nnc3s2)cc1 | 0.282 |
| S=C(c1ccccc1)N1CCCc2ccccc21 | -0.863 |
| CCC(=O)Nc1ccc(S(=O)(=O)Nc2ccc(Cl)nn2)cc1 | -0.125 |
| Cc1ccc(/C=N/NC(=S)NC(C)C)o1 | -0.11 |
| Cc1c(C(=O)NC(C)c2ccccc2)c(-c2ccccc2)nn1-c1ccccc1 (stereo not given) | 0.203 |
| COC(=O)CCS(=O)(=O)c1ccc(NC(C)=O)cc1 | 0.191 |
